The supplement of paper PMC6206098
± gives the uncertainty stated by the source. Shown are siRNA guide strands that differ only in the seed, positions 2 to 7.

Legend:
3LL = assay: cell viability relative to siNT1 control; higher = less toxic; details: concentration: 10 nM; 96 h; Mus musculus;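 note: Luminescence-based viability of cells reverse transfected in 384-well plates with lipid-complexed siRNAs built on a non-toxic 19mer backbone whose passenger strand carries 2′-O-methyl groups at positions 1 and 2, triplicates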
H460 = assay: cell viability relative to lipid-only control; HeyA8 human ovarian and H460 human lung cancer; M565 mouse liver and 3LL mouse lung cancer; siNT1 is a non-toxic control siRNA; higher = less toxic; details: concentration: 10 nM; 96 h; Homo sapiens
Experimental: (§1)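 Arrayed screen of 4096 siRNA duplexes, each carrying one of all possible 6mer seeds at guide-strand positions 2-7 in a fixed neutral 19mer scaffold (constant flanks: U at position 1, then ACAUGUAAACCA, plus a 3' AA overhang). The passenger strand is 2'-O-methylated at positions 1-2 so only the guide strand loads into RISC. Duplexes were reverse-transfected at 10 nM with RNAiMAX in triplicate in 384-well plates; viability was read by CellTiter-Glo ATP content 96 h after transfection. Values are % viability normalised to lipid-only wells (HeyA8, H460, M565) or to siNT1 (3LL).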

HeyA8 = assay: as above; details: concentration: 10 nM; 96 h; Homo sapiens
Experimental: as §1

M565 = assay: as above; details: concentration: 10 nM; 96 h; Mus musculus
Experimental: as §1
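Throughout, for cell viability relative to lipid-only control: reverse lipid transfection in 384-well plates, in triplicate, of duplexes on a non-toxic 19mer backbone with passenger strand 2′-O-methylated at positions 1 and 2, luminescence viability read-out.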

Row | Sequence | cell viability (3LL) | cell viability (H460) | cell viability (HeyA8) | cell viability (M565)
1 | UCCAAACACAUGUAAACCAAA | 86.2 ± 19% | 75.4 ± 7.9% | 67.1 ± 7.9% | 62.5 ± 4.7%
2 | UGGAAUAACAUGUAAACCAAA | 101 ± 11% | 64 ± 7.9% | 91.6 ± 13% | 41 ± 4.5%
3 | UACGCCUACAUGUAAACCAAA | 62.4 ± 2.5% | 71.6 ± 19% | 79.5 ± 14% | 60.2 ± 12%
4 | UCAAUCGACAUGUAAACCAAA | 97.7 ± 15% | 66.2 ± 4.7% | 84.5 ± 15% | 76 ± 6.4%
5 | UCCAUGGACAUGUAAACCAAA | 26.1 ± 4.1% | 9.61 ± 0.65% | 4.96 ± 0.25% | 19.9 ± 1.7%
6 | UAACCGGACAUGUAAACCAAA | 79.3 ± 2.9% | 63.4 ± 5.4% | 82.2 ± 3% | 46.1 ± 6.5%
7 | UCCAGAAACAUGUAAACCAAA | 104 ± 13% | 65.5 ± 8.5% | 81.5 ± 3.9% | 67.3 ± 15%
8 | UUGUUGAACAUGUAAACCAAA | 68.6 ± 2.9% | 57 ± 4.9% | 50.7 ± 1.7% | 27.8 ± 11%
9 | UCAGGACACAUGUAAACCAAA | 78 ± 16% | 20.4 ± 2.6% | 42.3 ± 4.4% | 45.7 ± 5.2%
10 | UGAGAUUACAUGUAAACCAAA | 62.6 ± 13% | 84.6 ± 13% | 70.3 ± 4.6% | 17.7 ± 4.4%
11 | UUCAGUCACAUGUAAACCAAA | 29.8 ± 1.4% | 56.8 ± 1.4% | 41.9 ± 3.6% | 34.8 ± 3.2%
12 | UCGAAGCACAUGUAAACCAAA | 84.4 ± 18% | 51.4 ± 2.9% | 29.7 ± 2.8% | 43.8 ± 5.1%
13 | UGCUGGAACAUGUAAACCAAA | 26.2 ± 2.2% | 62.2 ± 11% | 29.9 ± 3.2% | 15 ± 1%
14 | UAAUUCCACAUGUAAACCAAA | 50.1 ± 8.3% | 66.1 ± 5.6% | 52.4 ± 4.9% | 70.3 ± 14%
15 | UUAGCUAACAUGUAAACCAAA | 80.2 ± 12% | 96.7 ± 9.8% | 97.8 ± 1.9% | 73 ± 4.2%
16 | UAGGACAACAUGUAAACCAAA | 87.1 ± 3% | 61.1 ± 4.1% | 67.6 ± 6.4% | 71.2 ± 4.1%
17 | UCAUACAACAUGUAAACCAAA | 94.4 ± 18% | 36.4 ± 6.8% | 88.5 ± 4.5% | 81 ± 20%
18 | UUACCUAACAUGUAAACCAAA | 99.7 ± 10% | 76.2 ± 10% | 103 ± 4.4% | 95.6 ± 14%
19 | UAAUGAAACAUGUAAACCAAA | 119 ± 13% | 93.2 ± 14% | 94.2 ± 7.6% | 96 ± 14%
20 | UAACUUUACAUGUAAACCAAA | 81.7 ± 4.5% | 61.7 ± 4.6% | 69.7 ± 15% | 92.3 ± 20%
21 | UAGUAGCACAUGUAAACCAAA | 6.21 ± 1.7% | 7.07 ± 0.86% | 10.9 ± 0.34% | 20.1 ± 3.5%
22 | UAUUGGCACAUGUAAACCAAA | 8.12 ± 1.3% | 53.4 ± 3.3% | 60.5 ± 5.2% | 34 ± 3.3%
23 | UGGUCGAACAUGUAAACCAAA | 96.1 ± 10% | 41.6 ± 5.7% | 56.9 ± 1.4% | 109 ± 13%
24 | UUCGGUGACAUGUAAACCAAA | 86.2 ± 15% | 67 ± 6.3% | 90.3 ± 12% | 70.7 ± 4.8%

Row | Sequence | cell viability (3LL) | cell viability (H460) | cell viability (HeyA8) | cell viability (M565)
25 | UGAACGCACAUGUAAACCAAA | 63.2 ± 7.9% | 49.5 ± 3.6% | 79 ± 2.8% | 47.8 ± 3.9%
26 | UUCUUGUACAUGUAAACCAAA | 25.9 ± 7.8% | 66.9 ± 14% | 60 ± 12% | 83.7 ± 13%
27 | UUAGCUCACAUGUAAACCAAA | 18.9 ± 1.8% | 51.3 ± 5.2% | 63.6 ± 5.9% | 56.6 ± 5.5%
28 | UGAGAAGACAUGUAAACCAAA | 88 ± 14% | 70.9 ± 7.7% | 89.6 ± 4.5% | 59.8 ± 15%
29 | UGAACGAACAUGUAAACCAAA | 90.5 ± 20% | 81.9 ± 10% | 98.8 ± 5.1% | 69.2 ± 12%
30 | UGCGGCUACAUGUAAACCAAA | 29 ± 7.6% | 20.8 ± 1.6% | 9.36 ± 2.5% | 9.86 ± 5.8%
31 | UUGAGAGACAUGUAAACCAAA | 85.2 ± 6.9% | 92.4 ± 14% | 99.2 ± 7.2% | 33.5 ± 6.9%
32 | UAUUAACACAUGUAAACCAAA | 92.8 ± 17% | 97.6 ± 8.6% | 86 ± 13% | 98.9 ± 11%
33 | UAUGACUACAUGUAAACCAAA | 85.3 ± 8.1% | 49.2 ± 13% | 59.7 ± 6.3% | 97.8 ± 23%
34 | UGUUACGACAUGUAAACCAAA | 101 ± 12% | 63.3 ± 2.6% | 83.1 ± 11% | 63.7 ± 9%
35 | UCCAUCAACAUGUAAACCAAA | 90.6 ± 14% | 71.2 ± 8.3% | 80.1 ± 5.4% | 44 ± 10%
36 | UGUCGAUACAUGUAAACCAAA | 62 ± 15% | 66.5 ± 11% | 58.6 ± 1.5% | 42.7 ± 2.9%
37 | UGUGGAGACAUGUAAACCAAA | 72.5 ± 4% | 36.5 ± 6.4% | 11.1 ± 0.46% | 22.2 ± 12%
38 | UCACUACACAUGUAAACCAAA | 92.7 ± 9.3% | 26.3 ± 3% | 56.7 ± 4% | 62.1 ± 1.8%
39 | UCUACUUACAUGUAAACCAAA | 98.9 ± 18% | 66.8 ± 9.3% | 95.4 ± 12% | 73.1 ± 12%
40 | UUAGGCGACAUGUAAACCAAA | 80.3 ± 1.4% | 89.4 ± 14% | 94.56 ± 0.29% | 38 ± 5.4%
41 | UUCGUGCACAUGUAAACCAAA | 28.5 ± 8.3% | 20.4 ± 1.7% | 8.93 ± 0.92% | 31.5 ± 3.7%
42 | UUCCGUGACAUGUAAACCAAA | 83.8 ± 15% | 89 ± 3.3% | 87.1 ± 14% | 62.8 ± 1.8%
43 | UGAGUCUACAUGUAAACCAAA | 55.5 ± 13% | 53.6 ± 9.5% | 50.8 ± 6.2% | 16.2 ± 2.2%
44 | UAUAACAACAUGUAAACCAAA | 99 ± 19% | 110 ± 12% | 98.5 ± 12% | 93.7 ± 20%
45 | UCGGACUACAUGUAAACCAAA | 41.3 ± 8.1% | 42.9 ± 3% | 61.7 ± 2.3% | 27.3 ± 6.1%
46 | UAGCUAGACAUGUAAACCAAA | 63.3 ± 7.8% | 67.8 ± 3.7% | 30 ± 4.1% | 40.2 ± 5.8%
47 | UGUGGAAACAUGUAAACCAAA | 84.6 ± 3.5% | 86.5 ± 7.3% | 51.8 ± 3.3% | 42.9 ± 8%
48 | UCCAGUGACAUGUAAACCAAA | 96.1 ± 27% | 67.8 ± 8.9% | 60.1 ± 5.9% | 38.1 ± 10%
